# Reference: PubChem BioAssay AID1631 (National Center for Advancing Translational Sciences (NCATS), 2009)
# About 890 (0.34%) of roughly 260,000 compounds were called active. This list was built around the results that the source calls inconclusive (neither active nor inactive); the mix of calls is not that of the screen. The call rests on the fitted dose curve; in most records, active means well fitted activation curve with a large enough effect; inconclusive means small, poorly fitted or top-dose-only effect; inactive means no such curve, though single readings can be large or run the other way. No potency is given beside an inconclusive call; the fits are too rough.
# Biological target: Pyruvate kinase PKM (Homo sapiens) (UniProt P14618)
# Assay: qHTS Assay for Activators of Human Muscle isoform 2 Pyruvate Kinase; further: nearly all actives have a fitted effect of over 55% in size
# Settings: purified PKM2, Kinase-Glo ATP luminescence; Potency: activation; activation: at 57.5 µM (top of the series), 0% is enzyme alone, no compound
# Source text: NIH Chemical Genomics Center [NCGC] Matthew G. Vander Heiden, M.D., Ph.D. [Harvard Medical School, 77 Avenue Louis Pasteur, Boston, MA 02115] MLPCN Grant: 1 R03 MH085679-01 NCGC Assay Overview: Human pyruvate kinase muscle 2 (hPK-M2) enzyme was supplied as a highly purified (>95% pure) preparation from Harvard Medical School and assayed for its ability to generate ATP from ADP using phosphoenolpyruvate (PEP) as a substrate. ATP generation was detected in a coupled reaction by luciferase-mediated luminescence, an ATP-dependent process. […] The enzyme was assayed at an intermediate level of activity to screen for both inhibitors and activators.
# NCGC Assay Protocol Summary: Three uL of substrate mix (at r.t.) in assay buffer (50 mM Imidazole pH7.2, 50 mM KCl, 7 mM MgCl2, 0.01% Tween 20, 0.05% BSA) was dispensed into white solid bottom 1,536 well microtiter plates so that the final concentrations of substrates in the assay were 0.1 mM ADP and 0.5 mM PEP. 23 nL of compound were delivered by a pin tool and 1 uL of enzyme mix in assay buffer (4 degree Celsius) was added. Plates were incubated at room temperature for 1 hour. Two uL of detection mix (Kinase-Glo, Promega; at 4 degree Celsius protected from light) was added and luminescence read by a ViewLux (Perkin Elmer) at 5 second exposure/plate. Data were normalized to the uninhibited and AC100 inhibition (no enzyme). To monitor activation, the first column contained a titration of the activator, NCGC00031955-01 (16-point 1:2 dilutions in duplicate starting at 57 uM) and the first 16 rows of column 4 contained 57 uM of NCGC00031955-01.
# On the % scale 0 is the no-effect control and ±100 the full control effect; potency means the concentration at half of the fitted maximal effect; tags describe the fitted curve by direction and shape.
# Sequence of UniProt P14618 (P14618 whole entry, looked up, canonical isoform): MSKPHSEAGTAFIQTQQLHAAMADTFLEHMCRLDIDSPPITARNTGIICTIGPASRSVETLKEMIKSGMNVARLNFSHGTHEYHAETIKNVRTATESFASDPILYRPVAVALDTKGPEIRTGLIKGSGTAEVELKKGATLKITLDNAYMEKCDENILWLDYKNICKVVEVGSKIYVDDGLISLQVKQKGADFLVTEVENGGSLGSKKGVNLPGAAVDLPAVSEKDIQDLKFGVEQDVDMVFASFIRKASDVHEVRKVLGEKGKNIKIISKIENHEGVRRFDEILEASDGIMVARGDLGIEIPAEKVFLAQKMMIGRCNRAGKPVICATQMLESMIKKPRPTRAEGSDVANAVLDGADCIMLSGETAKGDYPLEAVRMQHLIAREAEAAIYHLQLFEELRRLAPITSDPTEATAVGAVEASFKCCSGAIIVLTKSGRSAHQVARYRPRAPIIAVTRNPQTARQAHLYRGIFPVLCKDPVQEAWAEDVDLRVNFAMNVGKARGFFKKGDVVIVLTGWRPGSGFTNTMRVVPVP
SMILES,Potency,activation
O=C(c1ccc(Cl)c(S(=O)(=O)N2CCCCCC2)c1)N1CCOCC1,"inconclusive [rising, single point]",
CN1CCCN(S(=O)(=O)c2ccc3ccccc3c2)CC1,active: 20 µM,
COc1ccccc1CN(Cc1cc2c(C)ccc(C)c2[nH]c1=O)Cc1nnnn1Cc1ccco1,"inconclusive [rising, single point]",
O=C(C1CC1)N(CCc1ccccc1)Cc1nc2ccccc2c(=O)[nH]1,"inconclusive [rising, single point]",
COc1ccc2nc(C)cc(SCC(=O)N/N=C/c3ccc(O)c(O)c3)c2c1,active: 25.1 µM,
Cc1nc(C)c(-c2csc(NCc3ccccc3)n2)s1,,inactive: 6.35%
O=[N+]([O-])c1ccc2c(OCc3nnc(-c4ccccc4Br)o3)ncnc2c1,"inconclusive [rising, single point]",
O=C(CSc1nnc(-c2ccc(O)cc2)o1)Nc1ccccc1,"inconclusive [rising, partial curve]",
CCC1CCCCN1S(=O)(=O)c1ccc2[nH]c(=O)ccc2c1 (stereo unspecified),"inconclusive [rising, single point]",
CC1Cc2ccccc2N1S(=O)(=O)c1cccc2nsnc12 (stereo unspecified),"inconclusive [rising, single point]",
CCOC(=O)c1cnc2ccccc2c1NCCO,"inconclusive [rising, single point]",
C=CCNC(=S)N1CCN(S(=O)(=O)c2ccc(C)cc2)CC1,"inconclusive [rising, single point]",
CC(=O)NC1=C(NC2CCS(=O)(=O)C2)C(=O)c2ccccc2C1=O (stereo unspecified),"inconclusive [rising, single point]",
O=C(COC(=O)C1=Cc2ccccc2OC1)NC1CCCC1,"inconclusive [rising, single point]",
COc1ccc(-n2c(SCC(=O)O)nnc2-c2ccc(NC(=O)c3ccccc3)cc2)cc1,"inconclusive [rising, single point]",
O=C(NCCc1c[nH]c2ccccc12)C1CCCN(S(=O)(=O)c2ccccc2)C1 (stereo unspecified),"inconclusive [rising, single point]",
O=[N+]([O-])c1ccc(-n2nnnc2-c2ccccc2)cc1,"inconclusive [rising, partial curve]",
CC(C)c1ccc(/C=N/Nc2cc(N3CCOCC3)nc(N3CCOCC3)n2)cc1,,inactive: 12.5%
N#CCCn1c(SCC(=O)NCC2CCCO2)nc2ccccc21 (stereo unspecified),active: 20 µM,
CCC(=O)c1c(OCc2ccccc2)ccc2c(C)cc(=O)oc12,,inactive: 17%
COc1cc(SC)ccc1C(=O)Nc1ccccn1,,inactive: -10.2%
Cn1c2ccccc2c(=O)c2c(=O)n(Cc3ccco3)c(COc3ccccc3)nc21,"inconclusive [rising, full curve]",
COc1ccc(-c2ncccc2OC(=O)C23CC4CC(CC(C4)C2)C3)cc1OC,"inconclusive [rising, single point]",
O=C(Nc1nc(-c2ccco2)cs1)c1ccccc1,"inconclusive [rising, single point]",
O=C(Nc1ccc2c(c1)OCO2)C1CC(c2ccccc2Cl)=NO1 (stereo unspecified),"inconclusive [rising, single point]",
c1cncc(CNc2c3c(nc4nnnn24)CCCC3)c1,"inconclusive [rising, partial curve]",

SMILES,Potency,activation
Cc1ccccc1NC(=O)CSc1nc2ccccc2o1,,inactive: 6%
CCNc1nc(NCC)nc(-n2nc(C)cc2C)n1,,inactive: -2.64%
C/C(=N\NC(=O)c1ccc(O)cc1O)c1cccnc1,,inactive: -11.1%
Cc1ccc(-c2csc(Nc3ccc(S(N)(=O)=O)cc3)n2)o1,active: 10 µM,
COc1ccc(N=C2S/C(=C\c3ccc(OCC(=O)O)cc3)C(=O)N2CCc2c[nH]c3ccccc23)cc1,active: 2.82 µM,
O=C1CN(S(=O)(=O)c2ccc(Cl)cc2C(F)(F)F)CCN1,"inconclusive [rising, single point]",
O=C(NCc1nnc2c(C(F)(F)F)cc(Cl)cn12)c1ccco1,active: 14.1 µM,
Cc1cc(C)n2cc(CSc3nnnn3-c3ccccc3)nc2n1,active: 8.91 µM,
CC1(C)Cc2cccc(OCC(=O)NCCOc3ccccc3)c2O1,,inactive: 4.73%
COc1cc(C2Nc3ccccc3C(=O)N2c2ccc(Cl)cc2)c(Cl)cc1OCC(=O)O (stereo unspecified),,inactive: 5.63%
COC(=O)CNC(=O)C1CCN(C(=O)OCc2ccccc2)CC1,,inactive: 0.481%
Cc1cc(Sc2nnc(N)s2)c2ccccc2n1,"inconclusive [rising, partial curve]",
O=C1c2ccccc2C(=O)N1CCc1nc2ccccc2c(=O)n1Cc1ccco1,,inactive: 14.4%
O=C(/C=C/c1ccco1)N1CCN(S(=O)(=O)c2ccc(F)c(F)c2F)CC1,"inconclusive [rising, partial curve]",
Clc1ccccc1-c1nn2c(Cn3cnc4ccccc43)nnc2s1,active: 3.98 µM,
CCOc1ccc(NC(=O)CSc2n[nH]c(N)n2)c([N+](=O)[O-])c1,"inconclusive [rising, partial curve]",
COCCn1c(=S)[nH]c2ccc(N(C)C)cc2c1=O,"inconclusive [rising, partial curve]",
Cc1ccc(N2C(=O)C3C4C=CC(CNC(=S)N5CCN(c6ccccn6)CC5)(O4)C3C2=O)cc1 (stereo unspecified),"inconclusive [rising, single point]",
COc1ccccc1C(=O)NCCC(=O)Nc1cccnc1,,inactive: 1.42%
C=CCn1c(SCC(=O)NCc2ccco2)nnc1-c1ccc2ccccc2n1,"inconclusive [rising, single point]",
COc1ccc(C(NC(=O)/C=C/c2ccco2)c2ccc(OC)cc2)cc1,"inconclusive [rising, single point]",
Cc1cccc(NC(=O)CN2C(=O)S/C(=C\c3ccc(O)c([N+](=O)[O-])c3)C2=O)c1,"inconclusive [rising, single point]",
O=C(O)CC(C(=O)O)c1cn(Cc2ccccc2)c2ccccc12 (stereo unspecified),,inactive: -3.36%
CCOC(=O)c1sc(NC(=O)c2cc(-c3ccccc3)nc3ccccc23)c(C#N)c1C,,inactive: -5.82%
O=C(c1cccc(-n2cccc2)c1)N1CCN(S(=O)(=O)c2c(F)cccc2F)CC1,,inactive: 21%
Cc1ccccc1CS(=O)(=O)c1nnc([C@H](CC(C)C)NC(=O)OC(C)(C)C)o1,"inconclusive [rising, partial curve]",

SMILES,Potency,activation
Cn1c(=O)n(C)c2cc(NS(=O)(=O)c3ccc(F)cc3)ccc21,"inconclusive [rising, partial curve]",
Clc1ccc(CSC2=NCCCN2)cc1Cl,,inactive: -6.64%
COc1ccccc1CNC(=O)C1=CCN(S(=O)(=O)c2ccc(C)cc2)CC1,"inconclusive [rising, partial curve]",
Cc1ccc(/C=N/NC(=O)CSc2nc3ccccc3n2Cc2ccc(Cl)cc2)o1,"inconclusive [rising, single point]",
CCNc1ccc(C(=O)OCC)cc1NC(=O)c1cccc(S(=O)(=O)N(C)c2ccccc2)c1,,inactive: -7.69%
CCn1cc(C(=O)NCc2ccc3c(c2)OCO3)c2cc(OC)c(OC)cc2c1=O,"inconclusive [rising, single point]",
Cc1ccc(NC2c3ncccc3C(=O)N2c2ccccc2C)cc1C (stereo unspecified),,inactive: 4.44%
CCOC(=O)c1cc(-c2cccs2)nc2onc(C)c12,,inactive: 1.87%
COc1ccccc1N1C(=O)N(C(C)=O)C2C1Nc1ccccc1N2C (stereo unspecified),,inactive: 7.02%
Cn1c(=O)oc2cc(S(=O)(=O)NCc3ccccn3)ccc21,"inconclusive [rising, partial curve]",
O=C(Oc1ccc(Cl)c2ccccc12)N1CCCCC1,,inactive: -4.06%
CC(C)c1ccc(C2CC(c3ccc(Br)cc3)=NN2C(N)=S)cc1 (stereo unspecified),"inconclusive [rising, partial curve]",
CCN1CCN(CCC(=O)Nc2ccccc2)CC1,"inconclusive [rising, single point]",
CCn1c(SCC(=O)N/N=C/C=C\c2ccco2)nc2ccccc21,"inconclusive [rising, full curve]",
CC(C)(C)c1ccc(S(=O)(=O)N2CCCCC2C(=O)NCc2ccccn2)cc1 (stereo unspecified),"inconclusive [rising, single point]",
Cc1ccc(Nc2cc(C)c3c(O)cccc3n2)cc1C,"inconclusive [rising, partial curve]",
Cc1ccc(C)n1-c1cccc(C(=O)O)c1,,inactive: -0.259%
COc1cc2c(cc1OC)/C(=C/C(=O)N1CCOCC1)NC(C)(C)C2,active: 25.1 µM,
CCC(C)(C)n1nnnc1C(c1cc2cccc(C)c2[nH]c1=O)N1CCN(C(=O)c2ccco2)CC1 (stereo unspecified),"inconclusive [rising, partial curve]",
CN(c1cccc(NC(=O)CN(c2ccc(Cl)c(Cl)c2)S(=O)(=O)c2ccccc2)c1)S(C)(=O)=O,"inconclusive [rising, single point]",
COc1ccccc1-c1ccc(/C=C2/C=C(CC(C)C)OC2=O)o1,"inconclusive [rising, single point]",
CSc1ccccc1C(=O)Nc1nccs1,"inconclusive [rising, full curve, poor fit]",
Cc1ccc(NC(=O)c2cnn(-c3ccccc3)c2C)cc1C,"inconclusive [rising, full curve, poor fit]",
CC(=O)c1cccc(NC(=O)CSc2nnc(-c3cccnc3)o2)c1,"inconclusive [rising, partial curve]",
